# Values joined by “and” are separate entries in the source; they are usually repeats but may differ in a detail not shown here. Equal values may be shown once. This list was built around the results that the source calls inconclusive (neither active nor inactive); the mix of calls is not that of the screen. Potencies of inconclusive entries are doubtful fits and often do not repeat. Active and inactive are the calls of the source. Calls come from the whole dose curve; as a rule, active = well fitted cell-killing curve with a large enough effect; inconclusive = small, poorly fitted or top-dose-only effect, or effect the other way; inactive = no such curve, though single readings can be large or run the other way.
# Assay: Viability qHTS for spleen associated tyrosine kinase inhibitor (SYKi) naive MV4-11 cells (AID 1963823); note: nearly all actives have a fitted effect of over 40% in size
# Conditions: MV4-11 AML viability, CellTiter-Glo luminescence, 72 h; viability (% of control): at 45 µM (top of the series)
# Outline: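 Compounds were dispensed acoustically onto plates, MV4-11 cells (SYKi-naive) added at 500 per well, and plates incubated 72 hr at 37 C. CellTiter-Glo was added and luminescence measured after 10 min.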
# Potency is the fitted concentration of half-maximal effect; tags give direction and shape of the fitted curve.
Compound,viability (% of control),Potency
CCCCN1C[C@H](O)[C@@H](O)[C@H](O)[C@H]1CO,inactive: 55.1%,–
COC(=O)C1=CO[C@@H](O[C@@H]2O[C@H](CO)[C@@H](O)[C@H](O)[C@H]2O)C2C1CC(O)C2C (some centres undefined),inactive: 84.1%,–
C[C@H]1[C@H](O)O[C@@H]2O[C@@]3(C)CC[C@H]4[C@H](C)CC[C@@H]1[C@@]24OO3,–,active: 0.731 µM
C=C(C(=O)O)[C@@H]1CC[C@@]2(C)CCC[C@@](C)(O)[C@@H]2C1,–,"inconclusive: 32.6 µM [cytotoxic, partial curve, poor fit]"
CC1(C)CCCC2(C)C=C(C(=O)O)C(O)CC12 (centres undefined),inactive: 39.5%,–
Cc1ccc(-c2c(-c3nn(C)c4ncnc(N5CCC(N6CCCCC6)C5)c34)cnn2C)cc1 (centres undefined),–,active: 16.4 µM
CC(O)CO[C@@H]1O[C@H](CO)[C@@H](O)[C@H](O)[C@H]1O (some centres undefined),inactive: 71%,–
O=C(CCCCCCC(=O)Nc1ccc(C2OC(CSc3nc(-c4ccccc4)c(-c4ccccc4)o3)CC(c3ccc(CO)cc3)O2)cc1)NO (centres undefined),–,active: 7.31 µM
CCO[C@@H]1OC(=O)C[C@@H]1NC(=O)[C@@H]1CCCN1C(=O)[C@@H](NC(=O)c1ccc(N)c(Cl)c1)C(C)(C)C,–,"inconclusive: 14.8 µM [cytotoxic, partial curve, poor fit]"
CC(/C=C/C1(O)C(C)(C)CC(O)CC1(C)O)OC1OC(CO)C(O)C(O)C1O (centres undefined),inactive: 72.1% [at 17.3 µM],–
FC(F)(F)c1ccc(CNc2ccc(Cc3c[nH]c4ncccc34)cn2)cc1,–,active: 259 nM and active: 116 nM
CN1CCc2nc(C(=O)N[C@@H]3C[C@@H](C(=O)N(C)C)CC[C@@H]3NC(=O)C(=O)Nc3ccc(Cl)cn3)sc2C1,–,"inconclusive: 29.1 µM [cytotoxic, single point]"
Cc1[nH]c(/C=C2\C(=O)Nc3cc(-c4ccccc4)ccc32)c(C)c1CCC(=O)O,–,"inconclusive: 8.2 µM [cytotoxic, partial curve]"
CN(C)C(=O)Oc1ccc[n+](C)c1,inactive: 84.3%,–
C=CC(=O)N1CCC[C@H](n2c(=O)n(-c3ccc(Oc4ccccc4)cc3)c3c(N)ncnc32)C1,–,active: 1.05 µM
CC(=O)O[C@@H]1[C@@H](OC(=O)/C=C/c2ccccc2)[C@H](C)O[C@@H](O[C@H]2[C@@H]3C=CO[C@@H](O[C@@H]4O[C@H](CO)[C@@H](O)[C@H](O)[C@H]4O)[C@@H]3[C@@]3(CO)O[C@@H]23)[C@@H]1OC(C)=O,–,"inconclusive: 1.93 µM [rising, single point]"
COc1cc2c(NC3CCN(C)CC3)nc(N3CCCN(C)CC3)nc2cc1OCCCN(C)C,–,"inconclusive: 3.72 µM [cytotoxic, full curve, poor fit]"
COc1cc(C[C@H]2C(=O)OC[C@@H]2Cc2ccc(OC)c(OC)c2)ccc1O,–,"inconclusive: 0.57 µM [cytotoxic, full curve]"
CN1CCC(NC(=O)c2cc(-c3c(O)cc(O)cc3Oc3ccc([N+](=O)[O-])cc3)on2)CC1,–,"inconclusive: 0.0517 µM [cytotoxic, full curve]"
CCCCNc1ccc(-c2ccc(CN3CCOCC3)cn2)c(NC2CCC(O)CC2)c1 (centres undefined),–,"inconclusive: 0.0502 µM [cytotoxic, full curve]"
COc1cc(/C=C/C(=O)OC2CC(C)=C(C(=O)O)/C2=C/CO[C@@H]2O[C@H](CO)[C@@H](O)[C@H](O)[C@H]2O)ccc1O (some centres undefined),inactive: 84.5% [at 17.3 µM],–
COc1ccccc1[C@@H]1C2=C(CC(C)(C)CC2=O)Nc2n[nH]c(C(F)(F)F)c21,–,"inconclusive: 13 µM [cytotoxic, partial curve]"
O=C(O)c1ccc(OC2OC(CO)C(O)C(O)C2O)cc1 (centres undefined),inactive: 71.2%,–
O=S(=O)(c1cccc2ccccc12)n1ccc2ccc(N3CCN4CCCC4C3)cc21 (centres undefined),–,active: 23.1 µM
COc1ccnc2[nH]cc(C(=O)C(=O)N3CCN(C(=O)c4ccccc4)C[C@H]3C)c12,–,"inconclusive: 0.0012 µM [rising, full curve]"
NC(=O)[C@H](Cc1ccccc1)NC(=O)[C@H](CCCN=C(N)N)NC(=O)C12CC3CC(CC(C3)C1)C2,inactive: 88.8% [at 9.25 µM],–
COc1ccc(Cl)c(Nc2nc3ccccc3nc2NS(=O)(=O)c2cccc(NC(=O)C(C)(C)N)c2)c1,–,"inconclusive: 9.2 µM [cytotoxic, partial curve] and inconclusive: 14.8 µM [cytotoxic, partial curve, poor fit]"
CCc1cccc2c3c([nH]c12)[C@@](CC)(CC(=O)O)OCC3,–,"inconclusive: 18.4 µM [cytotoxic, partial curve, poor fit]"
O=c1[nH]c2ccccc2n1CCN1CCN(c2cccc(C(F)(F)F)c2)CC1,–,"inconclusive: 16.4 µM [cytotoxic, partial curve]"

# — PubChem BioAssay (NCATS)
